In the supplement of paper PMC9446081:
The campaign covered roughly 39,000 compounds. About 220 (0.56%) showed activity. This is one part of the list.

Each molecule was assayed on Escherichia coli K-12 BW25113 (assay: relative growth (OD600 normalised to plate interquartile mean) (fraction); higher = less growth inhibition, active = 0.2 or less). Conditions: 50 µM; LB; incubation time: overnight (16-24 h).
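Note: static incubation at 37 °C against the wild-type strain, values averaged over two biological replicates.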

Row | SMILES | relative growth
1 | CN(C)CC(=O)N[C@H]1CC[C@H](CCNC(=O)C2CCC2)O[C@@H]1CO | inactive: 0.959
2 | O=C(CCCCC(=O)N/N=C/[C@H](O)[C@@H](O)[C@H](O)[C@H](O)CO)NO | inactive: 1.01
3 | O=C(C=Cc1ccc(O)cc1)c1ccccc1O | inactive: 0.904
4 | C[C@@H]1CN([C@H](C)CO)S(=O)(=O)c2ccc(-c3ccncc3)cc2O[C@H]1CN(C)S(=O)(=O)c1ccccc1F | inactive: 1
5 | O=c1[nH]c2ccc(F)cc2[nH]1 | inactive: 0.994
6 | C[C@H](CO)N1C[C@H](C)[C@@H](CN(C)C(=O)Nc2ccc(F)cc2)Oc2c(NS(C)(=O)=O)cccc2C1=O | inactive: 0.999
7 | C[C@H](CO)N1C[C@H](C)[C@@H](CN(C)Cc2ccc(C(=O)O)cc2)Oc2ccc(NC(=O)Nc3cccc4ccccc34)cc2C1=O | inactive: 0.983
8 | COc1ccc2c3c([nH]c2c1)[C@H](CO)N(C[C@]13CCN(CC1)CC1CCCC1)C(=O)CN1CCOCC1 | inactive: 0.987
9 | C[C@@H]1CCCCO[C@H](CN(C)CC2CCCCC2)[C@@H](C)CN([C@H](C)CO)C(=O)c2cc(NC(=O)CCCN(C)C)ccc2O1 | inactive: 0.896
10 | COc1ccc(S(=O)(=O)N(C)C[C@H]2Oc3cc(-c4ccccc4OC)ccc3S(=O)(=O)N([C@H](C)CO)C[C@@H]2C)cc1 | inactive: 1.03
11 | Cc1ccc(S(=O)(=O)Nc2ccc3c(c2)C(=O)N([C@@H](C)CO)C[C@H](C)[C@@H](CN(C)C(=O)Nc2ccc(C(F)(F)F)cc2)O3)cc1 | inactive: 0.961
12 | CN1CCCN(C(=O)c2ncn3c(C4CCN(S(C)(=O)=O)CC4)ccnc23)CC1 | inactive: 0.987
13 | O=C(COCc1nnn2c1CNCCC2)N1CCCC1 | inactive: 1.01
14 | CC(C)(C)OC(=O)C[C@@H]1CC=CC[C@@H](CC(=O)NCCO)C(=O)N[C@@H](Cc2c[nH]c3ccccc23)COC1=O | inactive: 1.03
15 | COc1ccc(NC(=O)N(C)C[C@@H]2OCCCC[C@@H](C)Oc3ccc(NS(=O)(=O)c4c(C)noc4C)cc3C(=O)N([C@@H](C)CO)C[C@H]2C)cc1 | inactive: 0.994
16 | COc1ccc(-c2cnc3c(c2)C(=O)N([C@H](C)CO)C[C@H](C)[C@H](CN(C)C(=O)Cc2cccnc2)O3)cc1 | inactive: 0.992
17 | CC(C)[Si](C#Cc1ccc(Oc2ccccc2)cc1)(O[Si](C#Cc1ccc(Oc2ccccc2)cc1)(C(C)C)C(C)C)C(C)C | inactive: 0.997
18 | C[C@H]1CN([C@@H](C)CO)C(=O)c2c(c3ccccc3n2C)-c2ccccc2CO[C@@H]1CN(C)Cc1ccccc1C(F)(F)F | inactive: 1.03
19 | O=C1O[C@H](c2ccccc2)[C@H](c2ccccc2)N2[C@H]1[C@@H](C(=O)Nc1nc3ccccc3s1)[C@]1(C(=O)Nc3ccccc31)[C@H]2c1ccc(O)cc1 | inactive: 1.02
20 | C[C@H](CO)N1C[C@H](C)[C@@H](CN(C)S(C)(=O)=O)OCc2ccccc2-c2c(n(C)c3ccccc23)C1=O | inactive: 1.02
21 | Cc1cccc(N[C@H]2CS(=O)(=O)C[C@@H]2O)c1 | inactive: 0.937
22 | COc1ccc(CN(C)C[C@@H]2OCCCC[C@@H](C)Oc3ccc(NS(=O)(=O)c4cccs4)cc3C(=O)N([C@H](C)CO)C[C@@H]2C)cc1 | inactive: 0.987

Row | SMILES | relative growth
23 | COCC(=O)N(C)C[C@@H]1Oc2cc(-c3ccc(OC)cc3)ccc2S(=O)(=O)N([C@H](C)CO)C[C@H]1C | inactive: 0.999
24 | O=C(NCc1cccc(F)c1)[C@H]1[C@H](CO)[C@H]2Cn3c(cccc3=O)[C@@H]1N2C(=O)c1cnccn1 | inactive: 0.969
25 | C[C@@H]1CCCCO[C@@H](CN(C)Cc2ccc(Cl)c(Cl)c2)[C@@H](C)CN([C@H](C)CO)C(=O)c2cc(NS(=O)(=O)c3ccc(F)cc3)ccc2O1 | inactive: 1.01
26 | COc1ccc(S(=O)(=O)N(C)C[C@@H]2Oc3ccc(N(C)C)cc3C(=O)N([C@@H](C)CO)C[C@@H]2C)cc1 | inactive: 1.01
27 | C[C@@H]1CN([C@H](C)CO)C(=O)c2cc(NC(=O)Cn3cnnn3)ccc2O[C@@H]1CN(C)C(=O)Nc1cccc2ccccc12 | inactive: 0.887
28 | O=Cc1ccccc1O[C@@H]1O[C@H](CO)[C@H](O)[C@@H](O)[C@H]1O | inactive: 0.987
29 | CC(C)(C)c1nc[nH]c1/C=c1\[nH]c(=O)/c(=C/c2ccccc2)[nH]c1=O | inactive: 0.971
30 | C[C@@H]1CN([C@@H](C)CO)C(=O)c2cccc(NC(=O)Nc3ccccc3)c2O[C@H]1CN(C)Cc1ccc(-c2ccccc2)cc1 | inactive: 0.994
31 | O=C(C[C@@H]1C=C[C@@H](NC(=O)Cc2ccccn2)[C@@H](CO)O1)NCCc1ccncc1 | inactive: 0.99
32 | C[C@H](CO)N1C[C@H](C)[C@H](CN(C)Cc2ccc(Cl)c(Cl)c2)Oc2ccc(NC(=O)Cn3cnnn3)cc2CC1=O | inactive: 0.999
33 | CNC[C@H]1Oc2ccc(NC(=O)CCN3CCOCC3)cc2CC(=O)N([C@H](C)CO)C[C@H]1C | inactive: 0.98
34 | Cc1noc(C)c1S(=O)(=O)N(C)C[C@H]1Oc2c(NC(=O)C3CCCCC3)cccc2C(=O)N([C@H](C)CO)C[C@H]1C | inactive: 1.01
35 | CC(C)NC(=O)Nc1ccc2c(c1)C(=O)N(C)[C@@H]1CC[C@H](CC(=O)NCc3ccc(F)cc3)O[C@H]1CO2 | inactive: 0.981
36 | C[C@@H]1CCCCO[C@@H](CN(C)C(=O)Nc2cccc3ccccc23)[C@@H](C)CN([C@@H](C)CO)C(=O)c2cc(NC(=O)c3ccccc3)ccc2O1 | inactive: 1.02
37 | COc1ccc2c3c([nH]c2c1)[C@@H](CO)N(Cc1ccncc1)C[C@]13CCN(CC1)Cc1ccc(cc1)-c1ccccn1 | inactive: 0.998
38 | CC(C)NCC(O)c1ccc(O)c(O)c1.Cl (centres undefined) | inactive: 0.895
39 | Cc1ccc(S(=O)(=O)Nc2ccc3c(c2)C(=O)N([C@H](C)CO)C[C@H](C)[C@@H](CN(C)C(=O)Nc2ccc(C(F)(F)F)cc2)OCCCC[C@@H](C)O3)cc1 | inactive: 1.01
40 | O=C(c1ccccc1)N1Cc2ccccc2[C@H]2OC(c3ccc(OCCCO)cc3)=N[C@@]2(Cc2ccccc2)C1=O | inactive: 1.04
41 | CC(C)(S)C(N)C(=O)O.NCCO (centres undefined) | inactive: 1.07
42 | Cc1noc(C)c1S(=O)(=O)N(C)C[C@@H]1Oc2ccc(NC(=O)Cc3cn(C)c4ccccc34)cc2CC(=O)N([C@H](C)CO)C[C@H]1C | inactive: 1
43 | O=C(C[C@H]1CC[C@H]2[C@@H](COC[C@H](O)CN2C(=O)c2cccnc2)O1)NCc1ccc(-c2ccccc2)cc1 | inactive: 1.01
44 | O=C(C[C@H]1CC[C@H]2[C@@H](COC[C@@H](O)CN2S(=O)(=O)c2ccc(F)cc2)O1)NCCN1CCCCC1 | inactive: 0.951

Row | SMILES | relative growth
45 | C[C@H]1CN([C@@H](C)CO)C(=O)c2cc(NC(=O)Nc3ccc(C(F)(F)F)cc3)ccc2O[C@H]1CN(C)S(C)(=O)=O | inactive: 0.96
46 | NC(=O)N1c2ccccc2CC(=O)c2ccccc21 | inactive: 1.18
47 | COC(=O)Cn1c(=O)c2c(OC)c(C)cnc2n(C)c1=O | inactive: 0.981
48 | C[C@H]1CN([C@@H](C)CO)C(=O)Cc2cc(NC(=O)Nc3cccc4ccccc34)ccc2O[C@@H]1CN(C)Cc1ccc(C(F)(F)F)cc1 | inactive: 1.02
49 | O=C(C[C@@H]1CC[C@H]2[C@@H](COC[C@@H](O)CN2S(=O)(=O)c2cccc(F)c2)O1)NCc1ccc2c(c1)OCO2 | inactive: 1
50 | C[C@H](CO)N1C[C@H](C)[C@@H](CN(C)S(=O)(=O)c2ccc(F)cc2)OCCCC[C@H](C)Oc2ccc(NC(=O)Cc3ccccc3)cc2C1=O | inactive: 0.92
51 | COC(=O)C[C@@H]1CC[C@H]2[C@@H](COC[C@H](O)CN2S(=O)(=O)c2ccc(F)cc2)O1 | inactive: 1.02
52 | O=C(C[C@@H]1C=C[C@H](NC(=O)c2cccnc2)[C@H](CO)O1)NCc1ccncn1 | inactive: 1.01
53 | CCOC(=O)C[n+]1ccccc1C | inactive: 1.02
54 | CCOC(=O)c1ccc(NC(=S)N[C@@H](NC(=O)c2ccc(Br)cc2)C(Cl)(Cl)Cl)cc1 | inactive: 0.976
55 | O=S1(=O)[C@@H]2C[C@H]3C=C[C@]2(CN1C1CC1)O3 | inactive: 1.01
56 | Cn1nnc2c1[C@H](COCCN1CCCC1)CN(S(C)(=O)=O)C2 | inactive: 1.03
57 | CN1C(=O)c2cc(NC(=O)c3cscn3)ccc2OC[C@@H]2O[C@@H](CC(=O)N3CCOCC3)CC[C@@H]21 | inactive: 0.971
58 | C[C@@H]1CCCCO[C@@H](CN(C)C(=O)Nc2ccc(C(F)(F)F)cc2)[C@@H](C)CN([C@H](C)CO)C(=O)c2cc(NC(=O)Nc3ccc4c(c3)OCO4)ccc2O1 | inactive: 0.966
59 | C[C@@H]1CN([C@@H](C)CO)C(=O)Cc2cc(NC(=O)C3CC3)ccc2O[C@@H]1CN(C)Cc1ccc(C(=O)O)cc1 | inactive: 0.983
60 | COc1ccc(NC(=O)Nc2ccc3c(c2)C(=O)N([C@H](C)CO)C[C@@H](C)[C@@H](CN(C)S(=O)(=O)c2c(C)noc2C)OCCCC[C@H](C)O3)cc1 | inactive: 0.992
61 | CC[C@H]1NCCNC1=O | inactive: 0.983
62 | Cc1ccc(S[C@]2(C(=O)NCC(C)C)CC(=O)N(Cc3cc(C(F)(F)F)cc(C(F)(F)F)c3)[C@@H]2c2ccc(CO)cc2I)cc1 | inactive: 0.874
63 | C[C@@H]1CN([C@H](C)CO)C(=O)c2cc(NC(=O)Nc3ccccc3)ccc2O[C@@H](C)CCCCO[C@H]1CN(C)C(=O)Cc1ccccc1 | inactive: 0.998
64 | C[C@@H]1CN([C@@H](C)CO)C(=O)c2cc(NC(=O)C3CC3)ccc2O[C@H]1CN(C)Cc1ccc(Oc2ccccc2)cc1 | inactive: 0.993
